The name of at least one read-out is uncertain.
Tested on: coronary artery
Assay: Increasing effect of blood flow in coronary artery, intra-arterial administration, anesthetized dog
Format: in vivo
Conditions: larger adenosin (30 or 100 micrograms) response = 100%

| Structure (SMILES) | Increasing effect of blood flow in coronary artery (10 micrograms) | Increasing effect of blood flow in coronary artery (30 micrograms) | Increasing effect of blood flow in coronary artery (100 micrograms) | Increasing effect of blood flow in coronary artery (300 micrograms) | Increasing effect of blood flow in coronary artery (3 micrograms) |
| --- | --- | --- | --- | --- | --- |
| C=CCOc1ccc(OCCCOC(=O)C2=C(C)NC(C)=C(C(=O)OC)C2c2cccc([N+](=O)[O-])c2)c2c1NC(=O)CC2 (stereo not shown) [Compound 1, 5-{3-[2,6-Dimethyl-5-methoxycarbonyl-4-(3-nitrophenyl)-1,4-dihydropyridin-3-carboxy]-propoxy}-8-propenyloxy-3,4-dihydrocarbostyril] | 28% | 95% | 123% | 133% |  |
| COC(=O)C1=C(C)NC(C)=C(C(=O)OCCOc2cccc3c2CCC(=O)N3)C1c1cccc([N+](=O)[O-])c1 (stereo not shown) [Compound 2, 5-{2-[2,6-Dimethyl-5-methoxycarbonyl-4-(3-nitrophenyl)-1,4-dihydropyridin-3-carboxy]-ethoxy}-3,4-dihydrocarbostyril] | 8% | 33% | 125% | 183% |  |
| COC(=O)C1=C(C)NC(C)=C(C(=O)OCCOc2ccc3c(c2)CCC(=O)N3)C1c1cccc([N+](=O)[O-])c1 (stereo not shown) [Compound 3, 6-{2-[2,6-Dimethyl-5-methoxycarbonyl-4-(3-nitrophenyl)-1,4-dihydropyridin-3-carboxy]-ethoxy}-3,4-dihydrocarbostyril] | 6% | 13% | 40% | 53% |  |
| COC(=O)C1=C(C)NC(C)=C(C(=O)OCCCOc2cccc3c2CCC(=O)N3)C1c1cccc([N+](=O)[O-])c1 (stereo not shown) [Compound 4, 5-{3-[2,6-Dimethyl-5-methoxycarbonyl-4-(3-nitrophenyl)-1,4-dihydropyridin-3-carboxy]-propoxy}-3,4-dihydrocarbostyril] | 65% | 96% | 107% | 117% | 22% |
| COC(=O)C1=C(C)NC(C)=C(C(=O)OCCCOc2ccc3c(c2)CCC(=O)N3)C1c1cccc([N+](=O)[O-])c1 (stereo not shown) [Compound 5, 6-{3-[2,6-Dimethyl-5-methoxycarbonyl-4-(3-nitrophenyl)-1,4-dihydropyridin-3-carboxy]-propoxy}-3,4-dihydrocarbostyril] | 24% | 67% | 85% | 98% | 13% |
| COC(=O)C1=C(C)NC(C)=C(C(=O)OCCCOc2ccc3c(c2)NC(=O)CC3)C1c1cccc([N+](=O)[O-])c1 (stereo not shown) [Compound 6, 7-{3-[2,6-Dimethyl-5-methoxycarbonyl-4-(3-nitrophenyl)-1,4-dihydropyridin-3-carboxy]-propoxy}-3,4-dihydrocarbostyril] | 24% | 55% | 87% | 108% | 11% |
| COC(=O)C1=C(C)NC(C)=C(C(=O)OCCCOc2ccc(O)c3c2CCC(=O)N3)C1c1cccc([N+](=O)[O-])c1 (stereo not shown) [Compound 7, 5-{3-[2,6-Dimethyl-5-methoxycarbonyl-4-(3-nitrophenyl)-1,4-dihydropyridin-3-carboxy]-propoxy}-8-hydroxy-3,4-dihydrocarbostyril] | 6% | 12% | 22% | 110% |  |

From US4564619A, “Carbostyril derivative” (Otsuka Pharmaceutical Co., Ltd., priority 1982, dated 1986)
